Enrichment score data for 18 molecules are collected here from the supplement of paper PMC10369915.

The list shows a part of the results. Rule as the data show it: active = 3.2 or more and inactive = the rest. Only a few entries rise above the background.
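Also: displayed peptides selected on beads carrying the immobilized SH2 domain, with library peptides lacking any tyrosine serving as negative controls.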

One assay concerns the target SHP2 C-SH2 domain E139D. Description: enrichment score (SH2-bound / input frequency) (ratio); bacterial display of known human phosphotyrosine sites (pTyr-Var adds point mutants) read by sequencing; higher = stronger binding; tyrosines were phosphorylated by kinases first. The conditions noted are these: peptide library: Human pTyr.
Take TRDNVAAYDEEGGGE [CADH1_HUMAN_755_YA]: the enrichment score was inactive: 1.18.
Still for that read-out and setting: with DGDGQVNYEEFVQMM [CALM_HUMAN_139] the figure was inactive: 0.89; with AIKWSNIYEDNGDDA [CA052_HUMAN_132], inactive: 1.05; with DDTRDNVYYYDEEGG [CADH1_HUMAN_753], inactive: 1.3.
On the same count and under the same terms, the same measure for CSTPQSQYALAEKHL [BTK_HUMAN_344_YA]: inactive: 1.06; for ADMDKDGYISNGELF [CANB1_HUMAN_106_YA]: inactive: 0.623.
Regarding EGRVAVEYLDPSPEV [BUB3_HUMAN_207], the enrichment score was inactive: 1.04.
Still for that read-out and setting: the same measure for ELQDSRVYVSSLGGG [CACNA1C_HUMAN_2217]: inactive: 0.576; for SSTSLAQYDSNSKKI [BMX_HUMAN_216]: inactive: 1.02.
Same read-out and setting: the same measure for YDMDKDGYISNGELF [CANB1_HUMAN_106]: inactive: 0.628; for APDTEEIYKLTGTGP [CAMP1_HUMAN_1537_YA]: inactive: 0.815; for YRARVANYQRDGPMC [CAT_HUMAN_386]: inactive: 0.711.
On the same count and under the same terms, with TRDNVYYYDEEGGGE [CADH1_HUMAN_755] the figure was inactive: 0.884.
Take EGLDFPEYDGVDRVI [CASQ1_HUMAN_43]: the enrichment score is inactive: 0.714.
Turning to TVHKLSYYEYDFERG [BTK_HUMAN_40], the enrichment score was inactive: 2.65.
Still for that read-out and setting: with DDTRDNVYAADEEGG [CADH1_HUMAN_753_YA] the figure was inactive: 1.02; with TIPELINYHQHNSAG [BTK_HUMAN_361], inactive: 0.919; with NANGEAVYCKFHYKT [CAT_HUMAN_231], inactive: 1.71.

In a further assay the target is SHP2 C-SH2 domain wild-type. Described as above. As to conditions: peptide library: Human pTyr.
Take TRDNVAAYDEEGGGE [CADH1_HUMAN_755_YA]: the enrichment score was inactive: 0.937.
Consider DGDGQVNYEEFVQMM [CALM_HUMAN_139], for which the enrichment score was inactive: 0.869.
The same measure, in the same setting: with AIKWSNIYEDNGDDA [CA052_HUMAN_132] the figure was inactive: 1.12; with DDTRDNVYYYDEEGG [CADH1_HUMAN_753], inactive: 1.05; with CSTPQSQYALAEKHL [BTK_HUMAN_344_YA], inactive: 1.07.
Still for that read-out and setting: the same measure for ADMDKDGYISNGELF [CANB1_HUMAN_106_YA]: inactive: 0.602; for EGRVAVEYLDPSPEV [BUB3_HUMAN_207]: inactive: 0.785; for ELQDSRVYVSSLGGG [CACNA1C_HUMAN_2217]: inactive: 0.492.
Still for that read-out and setting: with SSTSLAQYDSNSKKI [BMX_HUMAN_216] the figure was inactive: 0.901; with YDMDKDGYISNGELF [CANB1_HUMAN_106], inactive: 0.476.
For the molecule APDTEEIYKLTGTGP [CAMP1_HUMAN_1537_YA], the enrichment score is inactive: 0.485.
Same read-out and setting: the same measure for YRARVANYQRDGPMC [CAT_HUMAN_386]: inactive: 0.583.
Same read-out and setting: the same measure for TRDNVYYYDEEGGGE [CADH1_HUMAN_755]: inactive: 1.25; for EGLDFPEYDGVDRVI [CASQ1_HUMAN_43]: inactive: 0.615; for TVHKLSYYEYDFERG [BTK_HUMAN_40]: inactive: 1.25.
The same measure, in the same setting: with DDTRDNVYAADEEGG [CADH1_HUMAN_753_YA] the figure was inactive: 1.08; with TIPELINYHQHNSAG [BTK_HUMAN_361], inactive: 0.852; with NANGEAVYCKFHYKT [CAT_HUMAN_231], inactive: 1.86.

The next assay deals with SHP2 N-SH2 domain L43F. The description is as above. As to conditions: peptide library: Human pTyr.
In the case of TRDNVAAYDEEGGGE [CADH1_HUMAN_755_YA], the enrichment score is inactive: 0.989.
On the same count and under the same terms, with DGDGQVNYEEFVQMM [CALM_HUMAN_139] the figure was inactive: 0.856; with AIKWSNIYEDNGDDA [CA052_HUMAN_132], inactive: 1.28; with DDTRDNVYYYDEEGG [CADH1_HUMAN_753], inactive: 1.31.
For the molecule CSTPQSQYALAEKHL [BTK_HUMAN_344_YA], the enrichment score is inactive: 1.02.
The same measure, in the same setting: with ADMDKDGYISNGELF [CANB1_HUMAN_106_YA] the figure was inactive: 0.708.
On the same count and under the same terms, the same measure for EGRVAVEYLDPSPEV [BUB3_HUMAN_207]: inactive: 0.731.
Same read-out and setting: with ELQDSRVYVSSLGGG [CACNA1C_HUMAN_2217] the figure was inactive: 0.694.
In the case of SSTSLAQYDSNSKKI [BMX_HUMAN_216], the enrichment score is inactive: 0.924.
Consider YDMDKDGYISNGELF [CANB1_HUMAN_106], for which the enrichment score is inactive: 0.751.
With APDTEEIYKLTGTGP [CAMP1_HUMAN_1537_YA], the enrichment score was inactive: 0.554.
The same measure, in the same setting: with YRARVANYQRDGPMC [CAT_HUMAN_386] the figure was inactive: 0.65; with TRDNVYYYDEEGGGE [CADH1_HUMAN_755], inactive: 0.669; with EGLDFPEYDGVDRVI [CASQ1_HUMAN_43], inactive: 0.653.
As for TVHKLSYYEYDFERG [BTK_HUMAN_40], the enrichment score was inactive: 0.996.
Consider DDTRDNVYAADEEGG [CADH1_HUMAN_753_YA], for which the enrichment score is inactive: 1.19.
Still for that read-out and setting: the same measure for TIPELINYHQHNSAG [BTK_HUMAN_361]: inactive: 0.541.
For the molecule NANGEAVYCKFHYKT [CAT_HUMAN_231], the enrichment score is inactive: 1.3.

The target of a further assay is SHP2 N-SH2 domain T42A. Described as above. As to conditions: peptide library: Human pTyr.
As for TRDNVAAYDEEGGGE [CADH1_HUMAN_755_YA], the enrichment score is inactive: 0.708.
Take DGDGQVNYEEFVQMM [CALM_HUMAN_139]: the enrichment score is inactive: 0.717.
AIKWSNIYEDNGDDA [CA052_HUMAN_132]: the enrichment score is inactive: 1.21.
In the case of DDTRDNVYYYDEEGG [CADH1_HUMAN_753], the enrichment score was inactive: 1.22.
As to CSTPQSQYALAEKHL [BTK_HUMAN_344_YA], the enrichment score is inactive: 1.03.
The same measure, in the same setting: with ADMDKDGYISNGELF [CANB1_HUMAN_106_YA] the figure was inactive: 0.619; with EGRVAVEYLDPSPEV [BUB3_HUMAN_207], inactive: 0.912.
The same measure, in the same setting: with ELQDSRVYVSSLGGG [CACNA1C_HUMAN_2217] the figure was inactive: 0.556; with SSTSLAQYDSNSKKI [BMX_HUMAN_216], inactive: 0.83.
For the molecule YDMDKDGYISNGELF [CANB1_HUMAN_106], the enrichment score is inactive: 0.589.
On to APDTEEIYKLTGTGP [CAMP1_HUMAN_1537_YA], for which the enrichment score is inactive: 0.67.
Same read-out and setting: the same measure for YRARVANYQRDGPMC [CAT_HUMAN_386]: inactive: 0.552.
In the case of TRDNVYYYDEEGGGE [CADH1_HUMAN_755], the enrichment score is inactive: 1.01.
Same read-out and setting: with EGLDFPEYDGVDRVI [CASQ1_HUMAN_43] the figure was inactive: 0.781.
Regarding TVHKLSYYEYDFERG [BTK_HUMAN_40], the enrichment score was inactive: 1.08.
Consider DDTRDNVYAADEEGG [CADH1_HUMAN_753_YA], for which the enrichment score is inactive: 1.25.
In the case of TIPELINYHQHNSAG [BTK_HUMAN_361], the enrichment score is inactive: 0.498.
For the molecule NANGEAVYCKFHYKT [CAT_HUMAN_231], the enrichment score is inactive: 1.47.

In another assay the target is SHP2 N-SH2 domain T52S. Described as above. The conditions noted are these: peptide library: Human pTyr.
On to TRDNVAAYDEEGGGE [CADH1_HUMAN_755_YA], for which the enrichment score was inactive: 0.836.
In the case of DGDGQVNYEEFVQMM [CALM_HUMAN_139], the enrichment score was inactive: 0.79.
Same read-out and setting: the same measure for AIKWSNIYEDNGDDA [CA052_HUMAN_132]: inactive: 1.24; for DDTRDNVYYYDEEGG [CADH1_HUMAN_753]: inactive: 1.34; for CSTPQSQYALAEKHL [BTK_HUMAN_344_YA]: inactive: 1.38.
The same measure, in the same setting: with ADMDKDGYISNGELF [CANB1_HUMAN_106_YA] the figure was inactive: 0.63; with EGRVAVEYLDPSPEV [BUB3_HUMAN_207], inactive: 0.839; with ELQDSRVYVSSLGGG [CACNA1C_HUMAN_2217], inactive: 0.533.
Take SSTSLAQYDSNSKKI [BMX_HUMAN_216]: the enrichment score was inactive: 0.506.
Turning to YDMDKDGYISNGELF [CANB1_HUMAN_106], the enrichment score was inactive: 0.704.
As to APDTEEIYKLTGTGP [CAMP1_HUMAN_1537_YA], the enrichment score was inactive: 0.823.
As for YRARVANYQRDGPMC [CAT_HUMAN_386], the enrichment score is inactive: 0.664.
In the case of TRDNVYYYDEEGGGE [CADH1_HUMAN_755], the enrichment score is inactive: 0.598.
In the case of EGLDFPEYDGVDRVI [CASQ1_HUMAN_43], the enrichment score was inactive: 0.705.
Take TVHKLSYYEYDFERG [BTK_HUMAN_40]: the enrichment score is inactive: 1.13.
Still for that read-out and setting: the same measure for DDTRDNVYAADEEGG [CADH1_HUMAN_753_YA]: inactive: 1.27; for TIPELINYHQHNSAG [BTK_HUMAN_361]: inactive: 0.575; for NANGEAVYCKFHYKT [CAT_HUMAN_231]: inactive: 1.61.

For another assay, the target named is SHP2 N-SH2 domain wild-type. The assay is described as above. The conditions noted are these: peptide library: Human pTyr.
As to TRDNVAAYDEEGGGE [CADH1_HUMAN_755_YA], the enrichment score was inactive: 0.862.
Same read-out and setting: the same measure for DGDGQVNYEEFVQMM [CALM_HUMAN_139]: inactive: 0.803; for AIKWSNIYEDNGDDA [CA052_HUMAN_132]: inactive: 1.55; for DDTRDNVYYYDEEGG [CADH1_HUMAN_753]: inactive: 1.63.
With CSTPQSQYALAEKHL [BTK_HUMAN_344_YA], the enrichment score was inactive: 1.09.
As for ADMDKDGYISNGELF [CANB1_HUMAN_106_YA], the enrichment score is inactive: 0.836.
EGRVAVEYLDPSPEV [BUB3_HUMAN_207]: the enrichment score is inactive: 0.816.
For ELQDSRVYVSSLGGG [CACNA1C_HUMAN_2217], the enrichment score is inactive: 0.608.
Regarding SSTSLAQYDSNSKKI [BMX_HUMAN_216], the enrichment score was inactive: 0.891.
Still for that read-out and setting: the same measure for YDMDKDGYISNGELF [CANB1_HUMAN_106]: inactive: 0.662; for APDTEEIYKLTGTGP [CAMP1_HUMAN_1537_YA]: inactive: 0.651; for YRARVANYQRDGPMC [CAT_HUMAN_386]: inactive: 1.03.
For TRDNVYYYDEEGGGE [CADH1_HUMAN_755], the enrichment score is inactive: 0.629.
The same measure, in the same setting: the same measure for EGLDFPEYDGVDRVI [CASQ1_HUMAN_43]: inactive: 0.929; for TVHKLSYYEYDFERG [BTK_HUMAN_40]: inactive: 1.24.
On the same count and under the same terms, with DDTRDNVYAADEEGG [CADH1_HUMAN_753_YA] the figure was inactive: 1.18.
On the same count and under the same terms, with TIPELINYHQHNSAG [BTK_HUMAN_361] the figure was inactive: 0.83; with NANGEAVYCKFHYKT [CAT_HUMAN_231], inactive: 1.73.
